From PubChem BioAssay (NCI)
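96-well plates; 48 h exposure; 5 concentrations. Endpoints by linear interpolation between flanking doses. Not reached: highest tested concentration assigned. GI50 marks 50% less growth. TGI marks complete inhibition of growth.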

These compounds were tested on NCI-H322M lung (assay: DTP human tumour cell line panel, 48 h).

SMILES | TGI [µM] | GI50 [µM]
CC(C)(C)OC(=O)NC(CSCc1ccc(C(=O)c2ccccc2)cc1)C(=O)N1CCN(CCCCN2c3ccccc3Sc3cc(N=[N+]=[N-])ccc32)CC1 (centres undefined) | > 100 | –
O=[N+]([O-])c1ccccc1/C=N\NC(=S)N/N=C/c1ccccc1[N+](=O)[O-] | 89.1 | 7.29
O=S(=O)(F)Cc1ccccc1 | > 100 | –
CC(=O)CC[N+](C)(C)C | > 100 | –
O=NNc1ccc(-c2ccccc2)cn1 | > 88.6 | –
C[C@H]1C[C@@H](n2c(Nc3ccc(OC(F)(F)F)cc3)nc3cc(CCC(=O)O)ccc32)CC(C)(C)C1 | 23.8 | 11.6
COC1CCCc2c(OC(C)=O)ccc(OC(C)=O)c21 (centres undefined) | > 100 | –
